Results from PubChem BioAssay (Tox21).
The inconclusive results got no clear call from the source; some entries with a clear call stand among them for comparison. For part of these data: Potencies of inconclusive entries are doubtful fits and often do not repeat. Calls of active or inactive are those of the source. Calls follow the shape of the dose curve; as a rule, active = well fitted curve in the direction sought with a large enough effect in the repeat runs; inconclusive = weak or mixed curves; inactive = no such curve, though single readings can be large; an effect the other way counts as inactive or inconclusive.

Tested on: not listed separately
Assay: Caspase-3/7 induction in HepG2 cells by small molecules, qHTS assay (AID 1346978); also: % is scaled to controls: 0 for no effect and ±100 for the full control effect; nearly all actives have a fitted effect of over 15% in size
Details: HepG2 caspase-3/7 activation, Caspase-Glo luminescence, 17 h; series mostly up to 92.4 µM; caspase activation: at the top concentration
Summary of the method: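 Wild-type HepG2 cells (2,000/well) were settled 5 h at 37 C, 5% CO2, then exposed to compounds in DMSO for 17 h. Caspase-3/7 activity was read by luminescence 30 min after adding Caspase-Glo 3/7 reagent at room temperature.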
Tags tell the direction and shape of the fitted curve.

| SMILES | caspase activation | Potency |
| --- | --- | --- |
| O=C1c2ccccc2C(=O)C1c1ccccc1 | inactive: -2.01% [at 42.5 µM] |  |
| O=C(c1ccccc1)C(O)c1ccccc1 (stereo not given) |  | inactive |
| [O-][n+]1cccc(/C(Cl)=N/OC[C@@H](O)CN2CCCCC2)c1 | inactive: 0.126% [at 42.5 µM] |  |
| Oc1ccc2c(c1)OC[C@@H](N1CCC(O)(c3ccc(F)cc3)CC1)[C@H]2O | inactive: -15.2% [at 42.5 µM] |  |
| CCC[C@H](N[C@@H](C)C(=O)N1[C@H](C(=O)O)C[C@@H]2CCCC[C@@H]21)C(=O)OCC |  | inactive |
| Cc1c(N(C)CS(=O)(=O)O)c(=O)n(-c2ccccc2)n1C |  | inactive |

Tested on: not listed separately
Assay: Caspase-3/7 induction in CHO-K1 cells by small molecules, qHTS cell viability counter screen (AID 1346979); also: nearly all actives have a fitted effect of over 35% in size; also: potency is read from the fitted curve at half-maximal effect; as to activity change, negative = cytotoxicity: % is scaled to controls: 0 for no effect and ±100 for the full control effect
Details: CellTiter-Fluor fluorescence, 17 h; series mostly up to 92.4 µM; activity change, negative = cytotoxicity: at the top concentration
Summary of the method: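 Cytotoxicity counter screen: CellTiter-Fluor added to compound-treated wild-type CHO-K1 cells at 16 h (37C, 5% CO2), fluorescence measured 1 h later; same wells as caspase-3/7 measurement.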

| SMILES | Potency | activity change, negative = cytotoxicity |
| --- | --- | --- |
| O=C1N(c2ccccc2)c2ccccc2C1(Cc1ccncc1)Cc1ccncc1 | inconclusive: 15 µM [rising, partial curve] |  |
| CCCCNc1ccc(NCCCC)c2c1C(=O)c1ccccc1C2=O | active: 13 µM |  |
| CCCCCC/C=C/C(=O)OC |  | inactive: 6.73% |
| CCC(C)C1CCCCC1=O (stereo not given) |  | inactive: 1.08% |
| ClC(Cl)Cl | inconclusive: 76.3 µM [cytotoxic, single point] |  |
| CC(C)O.CC(C)O.CCOC(=O)/C=C(\C)O.CCOC(=O)/C=C(\C)O.[Ti] |  | inactive: 8.98% |
| O=C(NCCCN1CCOCC1)c1ccc(Cl)cc1 | inconclusive: 21.1 µM [rising, partial curve] |  |
| O=c1oc2c(O)c(O)cc3c(=O)oc4c(O)c(O)cc1c4c23 | inconclusive: 14.6 µM [cytotoxic, single point] |  |
| CC(=O)OCC(=O)[C@@]12OC(C)(C)O[C@@H]1C[C@H]1[C@@H]3C[C@H](F)C4=CC(=O)C=C[C@]4(C)[C@@]3(F)[C@@H](O)C[C@@]12C | inconclusive: 33.5 µM [cytotoxic, single point] |  |
| Nc1cnn([C@@H]2O[C@H](CO)[C@@H](O)[C@H]2O)c(=O)n1 | inconclusive: 77 µM [cytotoxic, single point] |  |
| Cc1ccc(C)c([N+](=O)[O-])c1 |  | inactive: 2.37% |
| NCC(=O)O |  | inactive: 7.68% [at 19 µM] |
| C/C=C/C(=O)OCC(C)C | inconclusive: 77 µM [cytotoxic, single point] |  |
| O=C(O)CNC(=O)CNC(=O)CNC(=O)CSC(=O)c1ccccc1 | inconclusive: 33.5 µM [rising, single point] |  |
| O=C(OCCOCCOC(=O)c1ccccc1)c1ccccc1 | inactive |  |
| CN1[C@@H]2CC[C@@H]1CC(OC(=O)C(CO)c1ccccc1)C2 (stereo not given in full) |  | inactive: 5.2% [at 42.5 µM] |

| SMILES | Potency | activity change, negative = cytotoxicity |
| --- | --- | --- |
| CC1=CC(=O)NS(=O)(=O)O1 | inactive |  |
| CCCC[P+](CCCC)(CCCC)CCCC | inactive |  |
| CCc1c(C(=O)O)c(=O)cnn1-c1ccc(Cl)cc1 | inconclusive: 54.5 µM [rising, partial curve, poor fit] |  |
| CC(=O)[O][Al] |  | inactive: -0.453% |
| C=CC(=O)OCCOc1ccccc1 | inconclusive: 68.5 µM [cytotoxic, single point] |  |
| c1ccc(CN(Cc2ccccc2)Cc2ccccc2)cc1 | inconclusive: 1.37 µM [cytotoxic, single point] |  |
| CC(CCO)CCc1ccccc1 (stereo not given) |  | inactive: 3.11% |
| OCc1ccccn1 | inconclusive: 47.3 µM [cytotoxic, partial curve, poor fit] |  |
| CCCC(C)CO (stereo not given) |  | inactive: 0.217% |
| O=C(Cl)c1ccc(F)c(Cl)c1 | inconclusive: 61.1 µM [rising, partial curve] |  |
| CC(=O)OC[C@H]1O[C@@](COC(C)=O)(O[C@H]2O[C@H](COC(C)=O)[C@@H](OC(C)=O)[C@H](OC(C)=O)[C@H]2OC(C)=O)[C@@H](OC(C)=O)[C@@H]1OC(C)=O | inactive |  |
| CCCCNC(=O)NS(=O)(=O)c1ccc(C)cc1 | inconclusive: 43.1 µM [rising, single point] |  |
| CCC(Cl)CCC(Cl)C(Cl)CC(Cl)C(Cl)C(Cl)CCl (stereo not given) |  | inactive: 5.63% |
| C[C@@H]1C[C@H]2[C@@H]3CCC4=CC(=O)C=C[C@]4(C)[C@@]3(F)[C@@H](O)C[C@]2(C)[C@@]1(O)C(=O)COC(=O)c1ccncc1 |  | inactive: -1.26% [at 42.5 µM] |
| CCCCNc1ccc(C(=O)OCCN(C)C)cc1 |  | inactive: 1.9% [at 42.5 µM] |
| O=c1c2ccccc2oc2ccccc12 |  | inactive: 6.63% |

Molecular target: Cytochrome P450 2D6 (Homo sapiens) (UniProt P10635)
Sequence of UniProt P10635 (P10635 whole entry, looked up): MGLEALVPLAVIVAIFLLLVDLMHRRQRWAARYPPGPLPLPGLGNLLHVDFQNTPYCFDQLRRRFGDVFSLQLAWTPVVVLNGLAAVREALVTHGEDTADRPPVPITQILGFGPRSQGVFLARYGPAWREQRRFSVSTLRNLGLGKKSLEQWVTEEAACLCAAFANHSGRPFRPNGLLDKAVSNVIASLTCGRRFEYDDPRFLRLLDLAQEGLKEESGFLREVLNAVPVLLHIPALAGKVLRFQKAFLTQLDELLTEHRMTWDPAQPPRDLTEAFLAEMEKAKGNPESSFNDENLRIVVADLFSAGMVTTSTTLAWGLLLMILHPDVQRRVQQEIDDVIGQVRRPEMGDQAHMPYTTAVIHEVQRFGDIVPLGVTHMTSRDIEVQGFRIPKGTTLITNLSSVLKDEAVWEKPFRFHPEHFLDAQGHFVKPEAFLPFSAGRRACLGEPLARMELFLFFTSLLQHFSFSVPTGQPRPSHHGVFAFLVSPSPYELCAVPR
Assay: Cytochrome P450 Family 2 Subfamily D Member 6 (CYP2D6) small molecule antagonists: luciferase reporter qHTS assay (AID 1671196); also: potency is read from the fitted curve at half-maximal effect; nearly all actives have a fitted effect of over 50% in size
Details: P450-Glo CYP2D6 enzyme assay, luciferin luminescence, 1 h; series mostly up to 115 µM; activity change, negative = inhibition: at the top concentration
Summary of the method: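 CYP2D6 enzyme–substrate mix was held with compound for 10 min at room temperature, then NADPH regeneration solution was added and the reaction ran 1 h at room temperature. Luciferin product was detected by luminescence after 20 min with detection reagent.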

| SMILES | Potency |
| --- | --- |
| [O-][n+]1cccc(/C(Cl)=N/OC[C@@H](O)CN2CCCCC2)c1 | active: 15.5 µM |
| Oc1ccc2c(c1)OC[C@@H](N1CCC(O)(c3ccc(F)cc3)CC1)[C@H]2O | inconclusive: 38.9 µM [inhibitor, partial curve] |
| Cc1c(N(C)CS(=O)(=O)O)c(=O)n(-c2ccccc2)n1C | inconclusive: 35.3 µM [inhibitor, partial curve] |
| O=C(Cl)c1ccc(F)c(Cl)c1 | inconclusive: 35.6 µM [inhibitor, partial curve] |

Molecular target: Cytochrome P450 2C19 (Homo sapiens) (UniProt P33261)
Sequence of UniProt P33261 (P33261 whole entry, looked up): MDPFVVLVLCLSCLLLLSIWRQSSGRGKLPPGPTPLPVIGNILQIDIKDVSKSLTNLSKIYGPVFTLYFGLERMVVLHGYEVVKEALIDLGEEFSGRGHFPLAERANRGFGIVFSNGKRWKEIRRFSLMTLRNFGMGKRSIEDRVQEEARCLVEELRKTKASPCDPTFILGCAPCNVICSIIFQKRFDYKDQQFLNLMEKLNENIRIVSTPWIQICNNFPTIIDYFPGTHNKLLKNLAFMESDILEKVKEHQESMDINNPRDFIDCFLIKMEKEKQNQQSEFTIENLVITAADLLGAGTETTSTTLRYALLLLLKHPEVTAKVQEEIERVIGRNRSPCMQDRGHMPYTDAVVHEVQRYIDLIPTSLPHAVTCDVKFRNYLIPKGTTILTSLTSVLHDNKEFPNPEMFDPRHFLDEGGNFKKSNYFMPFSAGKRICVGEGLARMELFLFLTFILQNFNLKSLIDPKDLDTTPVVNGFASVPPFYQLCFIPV
Assay: Cytochrome P450 Family 2 Subfamily C Member 19 (CYP2C19) small molecule antagonists: luciferase reporter qHTS assay (AID 1671197); also: potency is read from the fitted curve at half-maximal effect; nearly all actives have a fitted effect of over 65% in size
Details: P450-Glo CYP2C19 enzyme, luciferin luminescence, 1 h; series mostly up to 115 µM; activity change, negative = inhibition: at the top concentration
Summary of the method: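 CYP2C19 P450-Glo, 1536-well qHTS. Cpd + enzyme/proluciferin substrate 10 min RT; + NADPH regen, 37C 1 h; stop with luciferin detection reagent, 20 min RT, luminescence (RLU). Pos ctrl ketoconazole.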

| SMILES | Potency |
| --- | --- |
| O=C1c2ccccc2C(=O)C1c1ccccc1 | inconclusive: 9.77 µM [inhibitor, single point] |
| [O-][n+]1cccc(/C(Cl)=N/OC[C@@H](O)CN2CCCCC2)c1 | inconclusive: 9.77 µM [inhibitor, single point] |
| CCC[C@H](N[C@@H](C)C(=O)N1[C@H](C(=O)O)C[C@@H]2CCCC[C@@H]21)C(=O)OCC | inconclusive: 21.3 µM [inhibitor, single point] |
